The RNAGym collection of RNA variant scans (doi:10.7554/elife.90254)
The source gives no read counts; variants with many changes may rest on few reads.

B1: LINE1-mini (parent)
chain: GGCAGAGCUCAACACAGCGUGGCAAAGUGGCUGUGGCUAGACUGCC

Variants of: B1
Experiment: self-cleavage, relative activity (ratio to wild type); higher = more cleavage; in vitro, sequencing; the parent is a self-cleaving ribozyme

Variant	self-cleavage
G2U C3A G22A G29U C37G	0.02
G2U C3A G33U C45A C46U	0.06
G2U C3A G36C	0.11
G2U C3A U9A C15G U20A	0.12
G2U C3A U9A G33A C37G	0.4
G2U C3A U9G G17C A26U G36A C37A	0.46
G2U C3A U9G G27A U38C	0.07
G2U C3A U34A A39U	0
G2U C3G A4G A12C A16G G40A	0.01
G2U C3G A6C C18A U20G G29C U32C U34C	0
G2U C3G A11U U43C	0.04
G2U C3G A24C C31A	0.02
G2U C3G C13U A25C G30U	0.08
G2U C3G C37U	0.11
G2U C3G G5C C13U	0.11
G2U C3G G21A	0.39
G2U C3G G40C	0.03
G2U C3G U32A G44U	0.07
G2U C3U A12C C31A	0.03
G2U C3U A12G	0.04
G2U C3U A12G G17U U20A U32G C46G	0.31

Variant	self-cleavage
G2U C3U A14U G33C A41C	0.03
G2U C3U C10A	0.03
G2U C3U C10A G30U C37A	0.03
G2U C3U C10G U38A	0.03
G2U C3U C10U	0.04
G2U C3U C13U	0.09
G2U C3U C15G	0.06
G2U C3U C18G G27A C31G G40C	0.04
G2U C3U C37G	0.07
G2U C3U G17U G19A G22A G27A	0.21
G2U C3U G19U C23U	0.36
G2U C3U G22C U38C G44U	0.12
G2U C3U G36A	0.3
G2U C3U G44A	0.19
G2U C3U G44U	0.08
G2U C3U U20A	0.18
G2U C3U U34A C37A G40U	0.01
G2U C8A A12U C13G U34A C46A	0.07
G2U C8A A16G U32G	0.02
G2U C8A A25C	0.01
G2U C8A C13A C18A	0

Variant	self-cleavage
G2U C8A C18G A41G C42G	0.02
G2U C8A C37U C46A	0.02
G2U C8A G17C G30A	0.05
G2U C8A G19C U20C	0.04
G2U C8A G22A A39U	0.03
G2U C8A G30C	0.04
G2U C8A U9C G17U G44A	0.05
G2U C8A U9G G22A U43C	0.01
G2U C8A U32A G33C	0.06
G2U C8G A12C G19C G36U	0.01
G2U C8G A12C G40C A41U U43C C45A	0.01
G2U C8G A16U C18U C42U	0.16
G2U C8G C13A C37U	0.05
G2U C8G C13U	0.04
G2U C8G U20C	0.02
G2U C8U C13U G21C U28C	0.07
G2U C8U C18U A25C G27U U28G	0.02
G2U C8U C18U G29U C31G G35C	0.01
G2U C8U G17U G19U	0.03
G2U C8U G35C U38G	0
G2U C8U U20C G21A	0.01

Variant	self-cleavage
G2U C8U U34C G36A C37U	0.12
G2U C10A A11C U32C	0
G2U C10A A12C G44C	0.01
G2U C10A C13G	0
G2U C10A C13U A26G U28A U32C G36U	0.01
G2U C10A C13U G36A	0.05
G2U C10A C15G A16C A26C G36U	0.01
G2U C10A C23A A24U	0.01
G2U C10A C37U	0.02
G2U C10A G19U C46U	0.02
G2U C10A G19U G21U	0.02
G2U C10A G22C C42G	0.01
G2U C10A G27C	0.04
G2U C10A G27U C31U	0.01
G2U C10A G30A	0.01
G2U C10A G30C	0.02
G2U C10A G36U C37A U38A A39U	0.01
G2U C10A G40A C45G	0.02
G2U C10A G44A	0.02
G2U C10G A11C A26G C45U	0
G2U C10G A12G G19C G21U A41C G44A	0
